Our source for the activation values is PubChem BioAssay AID1346428 (National Center for Advancing Translational Sciences (NCATS), 2018).

Several values for one entry are separate records, joined by “and”; a condition that tells them apart may be missing. Equal values may be shown once. In all, about 48,000 compounds went through this assay and about 1,200 (2.5%) were called active. Roughly 2% stayed inconclusive and do not appear here.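 How the source made its calls: active means activation of at least 60% and not above a set upper limit (about 1 call in 100 departs from these limits); inconclusive means activation of 40% to 60%, or above that upper limit; inactive means activation under 40%.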 The list shows a part of the results.

For the test, the target named is Probable G-protein coupled receptor 32 (Homo sapiens) (UniProt O75388). In words: qHTS for Agonists of Human Resolvin D1 Receptor DRV1. Further: 0% is about no effect. Particulars: CHO-K1 GPR32 beta-arrestin PathHunter luminescence, 90 min; at 76.9 µM; hits give high values; zero percent set by DMSO-only wells. A digest of the protocol: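 PathHunter beta-arrestin recruitment in CHO-K1 cells stably expressing ProLink-tagged GPR32. Cells were exposed to compound for 90 min at 37 C, then chemiluminescence was read after 1 h detection at ambient temperature; DMSO served as basal control.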
Chain of UniProt O75388 (O75388 whole entry, looked up): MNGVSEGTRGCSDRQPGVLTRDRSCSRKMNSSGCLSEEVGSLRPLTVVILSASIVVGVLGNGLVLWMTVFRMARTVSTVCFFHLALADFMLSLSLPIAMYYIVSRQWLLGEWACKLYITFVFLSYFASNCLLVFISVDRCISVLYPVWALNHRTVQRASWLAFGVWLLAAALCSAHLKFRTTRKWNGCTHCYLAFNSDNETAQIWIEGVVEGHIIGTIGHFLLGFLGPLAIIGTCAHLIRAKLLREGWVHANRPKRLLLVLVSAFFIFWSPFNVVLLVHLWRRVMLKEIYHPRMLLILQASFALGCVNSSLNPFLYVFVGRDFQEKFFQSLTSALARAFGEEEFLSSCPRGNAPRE
Background: In qHTS, concentration-response curves come from the screen itself.
As to `CCC(=O)N1CCc2cc(CNS(=O)(=O)c3c(C)cc(C)cc3C)ccc21`, the activation is inactive: -25.7%. The same measure for `Cc1ccc(Cn2nnc3sc4c(c3c2=O)CCC(C)C4)cc1` (configuration not stated): inactive: 6.99%; for `Cc1ccc(C)c(NC(=O)CN2C(=O)C3(SCC(=O)N3c3ccc(C)c(C)c3)c3ccccc32)c1` (configuration not stated): inactive: -6.42%; for `O=C(Cn1nc(-c2ccccc2)c2cnc3ccccc3c21)Nc1ccccc1`: inactive: -13.9%.

As to `CC1CCc2nc3ncn(Cc4ccc(Cl)cc4)c(=O)c3cc2C1` (configuration not stated), the activation was inactive: -16.1%. `Cc1ccc2nc(-c3ccc(Cl)c(NC(=O)c4ccc5c(c4)OCCO5)c3)oc2c1`: the activation is inactive: 17.1%. The same measure for `Cc1nnc(NCc2ccc(Cl)cc2)c2c1nnn2Cc1ccc(F)cc1`: inactive: 2.97%; for `COC(=O)c1ccccc1NC(=O)c1cc(-c2ccc(Cl)cc2)on1`: inactive: 3.47%; for `CCc1ccc2ncc(S(=O)(=O)c3ccc(Cl)cc3)c(N3CCN(CC)CC3)c2c1`: inactive: -15.9%.

Turning to `Cc1nc2ccccc2n1CCc1nc2c3ccccc3nc(SCC(=O)Nc3cccc(C(F)(F)F)c3)n2n1`, the activation is inactive: 25%. As for `Cc1cc(C)cc(-n2c(SCC(=O)N3CCCC3)nc3c([nH]c4ccccc43)c2=O)c1`, the figure is inactive: 3.26%.

Turning to `Cc1cc(C)nc(NS(=O)(=O)c2ccc(NC(=O)c3ccccc3O)cc2)n1`, the activation is inactive: -4.51%.

`CCCCOc1ccc(C(=O)N2CC(=O)Nc3ccc(Br)cc3C2c2ccc(F)cc2)cc1` (configuration not stated): the activation is inactive: -22.8%. In the case of `COc1ccc(Br)cc1Cn1nnc(C(=O)Nc2ccc(C)cc2C)c1N`, the activation was inactive: -12.1%.

Take `COc1ccc2c(Sc3ccccc3)c(C(=O)NCC(C)c3ccccc3)[nH]c2c1` (configuration not stated): the activation was inactive: -7.56%. As for `Cc1ccccc1NC(=O)CSc1nc(-c2ccc(F)cc2)nc2c1Cc1ccccc1O2`, the figure is inactive: 2.7%. In the case of `Cn1c(=O)n(-c2ccc3c(c2)OCO3)c2nc(-c3ccc(Cl)cc3)nc(C(N)=O)c21`, the activation was inactive: -5.76%. As to `O=C(CCC1N=C2c3ccccc3N=C(SCc3ccccc3Cl)N2C1=O)NCCc1ccccc1` (configuration not stated), the activation was inactive: 5.91%.

As to `Cc1cccc(OC(C)C(=O)Nc2nonc2-c2ccc(Br)cc2)c1C` (configuration not stated), the activation is inactive: 14.2%. As for `CCOC(=O)[C@H](CCc1ccccc1)N[C@@H](C)C(=O)N1[C@H](C(=O)O)C[C@@H]2CCC[C@@H]21`, the figure is inactive: -7.75%; as for `COc1ccc(C2=C(C)C(=O)N(Cc3ccc(C(=O)NC(C)c4ccccc4)cc3)S2(=O)=O)cc1` (configuration not stated), inactive: -17.5%.

Regarding `Cc1cc(=O)n2nc(N3CCC(C(=O)Nc4c(C)cccc4C)CC3)sc2n1`, the activation is inactive: -24.2%. For the molecule `CCOc1ccc(N2CC(c3nc4ccccc4n3CCCCOc3ccc(OC)cc3)CC2=O)cc1` (configuration not stated), the activation is inactive: -22.3%.

Regarding `Cc1cccc(N2C(=O)CSC23C(=O)N(CC(=O)Nc2cccc(Cl)c2)c2ccccc23)c1` (configuration not stated), the activation is inactive: -0.335%. In the case of `CC1CCN(S(=O)(=O)c2cc3c4c(c2)C(C)C(=O)N4CCC3)CC1` (configuration not stated), the activation was inactive: -14.5%. As for `COc1ccc(CNC(=O)CN2C(=O)CSc3ccc(S(=O)(=O)N(C)C)cc32)cc1`, the figure is inactive: -11.2%; as for `O=C(NC1CCCCCC1)C1c2ccccc2C(=O)N1Cc1ccc(F)cc1` (configuration not stated), inactive: -1.09%.

On to `COc1ccccc1CCN1COc2c(cc3c(C)c(C)c(=O)oc3c2C)C1`, for which the activation was inactive: 6.99%. As for `CCOC(=O)c1cc(C)n(CC2CCC(C(=O)Nc3cccc(Cl)c3)CC2)c1C` (configuration not stated), the figure is inactive: -3.01%; as for `CCc1cccc(NC(=O)Cn2c(=O)n(CCC(=O)NCc3ccccc3Cl)c(=O)c3sccc32)c1`, inactive: 44.6%; as for `Oc1c(C(c2ccccc2)N2CCOCC2)sc2nc(-c3ccco3)nn12` (configuration not stated), inactive: -8.59%. The same measure for `CCN(CC)c1ccc(NC(=O)CN2CCN(c3ccccc3OC)CC2)cc1`: inactive: -31.4%; for `Cc1cc(C)cc(NC(=O)c2sc3nc4n(c(=O)c3c2C)N=C(c2ccccc2)CS4)c1`: inactive: -16.4%. For the molecule `Nc1c(C(=O)Nc2cccc(F)c2)nnn1-c1cccc(C(F)(F)F)c1`, the activation is inactive: 2.22%. The same measure for `Cc1ccc(Cl)cc1NC(=O)C(Cc1ccccc1)NS(=O)(=O)c1cccc2nsnc12` (configuration not stated): inactive: -23.5%; for `Cc1ccc(-c2cc3ncc(C(=O)c4cc(Cl)c(C)cc4O)cn3n2)cc1`: inactive: -7.6%. `CCN(C(=O)CSc1ncc2c(n1)-c1cc(Cl)ccc1N(Cc1ccccc1)S2(=O)=O)c1cccc(C)c1`: the activation is inactive: 7.23%.

Turning to `CCOc1ccc(Br)cc1C1C(C(=O)OC)=C(C)NC2=C1C(=O)c1ccccc12` (configuration not stated), the activation is inactive: -14.5%. The same measure for `COc1ccc(C)cc1NC(=O)c1c2c(nc3ccccc13)C(=O)N(C1CCCCC1)C2`: inactive: 10.4%. `Cc1ccc(NS(=O)(=O)c2ccc3c(c2)CC(=O)N3)cc1Cl`: the activation was inactive: -20.3%.

In the case of `COc1ccc(OC)c(C2Nc3c(C)cc(C)cc3-c3cc(C)nn32)c1` (configuration not stated), the activation is inactive: -16.5%.

Regarding `CCc1c(C)sc2c1CCN(C(=O)Nc1ccccc1C(=O)OC)C2c1ccc(OC)cc1` (configuration not stated), the activation was inactive: -7.95%.

With `Cc1ccc(Cl)cc1N1CCN(C(=O)c2cc3ccc4cccnc4c3[nH]2)CC1`, the activation is inactive: -34%. With `CC(C)c1ccc(C2=CC(c3cccc(Cl)c3)n3c(nc4ccccc43)N2)cc1` (configuration not stated), the activation was inactive: 47.1%. The same measure for `CCC(CC)(CC(=O)Nc1cccc(/C=C/c2nc(C3CCC3)cs2)c1)C(=O)O`: inactive: -3.73%.

In the case of `CCn1c(=O)cc(OCC(=O)N(C)c2ccc(OC)cc2)c2ccccc21`, the activation was inactive: 19.1%. With `O=C(NCc1ccc(Cl)cc1)C1=Cc2cc(Br)ccc2OC1`, the activation was inactive: 20.1%. As to `CCC(=O)N1CCc2cc(Br)cc(S(=O)(=O)N3CCCC(C(=O)Nc4cc(C)ccc4OC)C3)c21` (configuration not stated), the activation is inactive: -0.618%. The same measure for `CCOc1ccc(NC(=O)CN2C(=O)C(c3ccc(Cl)cc3)=NC2(C)C)cc1`: inactive: 4.39%. As for `NC(=O)c1ncn([C@@H]2O[C@H](CO)[C@@H](O)[C@H]2O)n1`, the figure is inactive: 0.329% and inactive: -0.925%; as for `COc1cc(OC)c(NC(=O)c2c(N3CCCC3=O)c3cc(C)ccc3n2C)cc1Cl`, inactive: -10.5%. Turning to `COc1ccc(OC)c(CNC(=O)c2ccc3nc(C(C)C)oc3c2)c1`, the activation is inactive: -30.4%. `COc1ccc(Cl)cc1C(=O)Nc1ccc2nc(Nc3cccc(Cl)c3)cc(C)c2c1`: the activation is inactive: -9.3%.

On to `Cc1ccccc1OCC(=O)Nc1nnc(S(=O)(=O)N2CCCC2)s1`, for which the activation is inactive: 5.36%. For the molecule `CCOc1ccccc1NC(=O)Cn1ncc2c([nH]c3ccccc32)c1=O`, the activation is inactive: -17.1%. On to `CCn1c(=O)c2cc(C(=O)NCCCN3CCN(c4ccc(F)cc4)CC3)sc2c2ccccc21`, for which the activation is inactive: 9.76%. The same measure for `CC(C)Oc1ccc(CNC(=O)c2ccc3c(c2)nc2n3CCCCC2)cc1`: inactive: -8%. With `Cc1cc(C)c(NC(=O)C(C)n2c(=O)cc(-c3ccccc3)c3c(C)nn(C)c32)c(C)c1` (configuration not stated), the activation was inactive: -9.77%. Regarding `CCCCNc1ccc(-c2nc(-c3ccccn3)no2)cc1[N+](=O)[O-]`, the activation is inactive: -7.33%. The same measure for `COc1ccc(-c2nnn3c2nc(NCc2ccc(C)cc2)c2ccccc23)cc1`: inactive: 15%; for `CC(C)COCC(CN(Cc1ccccc1)c1ccccc1)N1CCCC1` (configuration not stated): inactive: 35.6% and inactive: -10.7%. The same measure for `CCCNC(=O)CSc1c(CCC)cnc2c1c(=O)n(C)c(=O)n2C`: inactive: -11.5%; for `CCOC(=O)c1cnc(N2CCN(c3cccc(C)c3C)CC2)c2ccccc12`: inactive: -12.3%. For `O=C(NCCc1csc(-c2cccnc2)n1)c1ccccc1`, the activation was inactive: 12.1%.

Consider `O=C(CN1C(=O)C2(SCC(=O)N2c2cccc(F)c2)c2ccccc21)NCCc1ccccc1` (configuration not stated), for which the activation is inactive: -19%. Consider `Cc1nnc2c(N3CCN(c4ccc(F)cc4)CC3)nc3ccc(C(=O)c4ccccc4)cc3n12`, for which the activation is inactive: 3.85%. With `Cc1ccccc1C(=O)OCc1cc(=O)n2nc(C3CCCCC3)sc2n1`, the activation was inactive: -3.99%. Turning to `CC1CCCCN1CCCNC(=O)CN1C(=O)CSc2ccc(S(=O)(=O)N3CCOCC3)cc21` (configuration not stated), the activation was inactive: -7.6%. Consider `CCOC(=O)c1cc(-c2ccc(OC)c(S(=O)(=O)NCc3ccccc3Cl)c2)on1`, for which the activation was inactive: -15.8%. The same measure for `COc1ccc(OC)c(NC(=O)Cn2ccn(-c3ccc(OC)c(OC)c3)c(=O)c2=O)c1`: inactive: 7.36%. The same measure for `CCc1ccc(NC(=O)Nc2ccccc2OCc2cc(=O)n3ccccc3n2)cc1`: inactive: -4.99%. Regarding `Cn1c(=O)c2[nH]c(C3CCCC3)nc2n(C)c1=O`, the activation was inactive: 2.66%. The same measure for `Cc1ccc(CNC(=O)Cn2c(=O)cc(C)c3c(C)nn(-c4cccc(F)c4)c32)cc1`: inactive: -8.23%. `Cc1ccc(C)c(N2CCN(S(=O)(=O)c3ccc(-c4cnc(C5CC5)o4)cc3)CC2)c1`: the activation was inactive: 2.49%. Consider `CCOCCCNc1nc2c(S(=O)(=O)c3ccc(CC)cc3)nnn2c2ccc(Cl)cc12`, for which the activation was inactive: -2.96%.

Take `O=C(Cn1ncc2c3ccccc3n(Cc3cccc(Cl)c3)c2c1=O)NCCCN1CCCCC1`: the activation is inactive: -6.02%. The same measure for `COc1ccc(-c2cn3cccnc3n2)cc1NC(=O)Nc1cc(C)ccc1C`: inactive: -22.7%. In the case of `O=C(NCCc1ccccc1)C1CCN(Cc2cc3ccccc3n2Cc2ccccc2)CC1`, the activation was inactive: -49.6%.

In the case of `CCOc1ccccc1CN1CCc2nc(N3CCN(C)CC3)ncc2C1`, the activation was inactive: -10.7%.

`Cc1ccc(NC(=O)CSc2nc(-c3cccs3)nc3cc(=O)[nH]n23)cc1C`: the activation is inactive: 2.37%. The same measure for `CN1C(C(=O)c2ccccc2)=C(NC(=O)c2ccc(F)cc2)c2ccccc2S1(=O)=O`: inactive: -24.8%; for `CCOc1ccc(-c2cc(C(=O)NC(C)c3ccccc3)c3ccccc3n2)cc1` (configuration not stated): inactive: -18.4%.
